From paper PMC7819943, “Rice protein-binding microarrays: a tool to detect cis-acting elements near promoter regions in rice” come the findings set out here.

This is one part of the list.

For this test, the target named is T1, OsWOX13 (Oryza sativa, UniProt Q5QMM3 1-267).
T1 sequence: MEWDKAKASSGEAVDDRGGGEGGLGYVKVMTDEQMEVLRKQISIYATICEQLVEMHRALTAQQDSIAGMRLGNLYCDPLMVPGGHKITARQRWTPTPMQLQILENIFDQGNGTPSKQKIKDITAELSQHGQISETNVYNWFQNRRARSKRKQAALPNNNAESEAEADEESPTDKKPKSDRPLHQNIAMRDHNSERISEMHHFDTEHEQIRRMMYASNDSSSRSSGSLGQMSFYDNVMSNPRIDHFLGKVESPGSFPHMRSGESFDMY
Put plainly: protein-binding microarray (RPBM); PBS, 2% BSA, 51.3 ng/ul salmon testes DNA, 50 uM zinc acetate, 200 nM TF, 25 C, 1 h; high values mean tight binding. The conditions noted are these: protein: recombinant; tags: N-terminal polyhistidine and DsRed monomer fusion (pET32a); label: CyDye5-dUTP incorporated in the synthesized complementary strand; 3' TTTTT single-stranded linker to array surface; dsDNA, one strand shown. The method in brief:
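In PBS with 2% BSA, salmon testes DNA and 50 µM zinc acetate, 200 nM protein was incubated on a custom Agilent array at 25 °C for 1 h and then washed off. The array had been made double-stranded by primer extension with Cy5-dUTP and blocked with 2% BSA. The proteins were transcription factors fused N-terminally to polyhistidine and DsRed, expressed in E. coli BL21-CodonPlus and purified on Ni–NTA. The binding signal is per-feature fluorescence intensity (arbitrary units) from an Axon 4000B scanner.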
“AGTGAGCTGATAGATAGACTATAACTAAGCAGCTGGATGTCGGAGTCACCTAGTGCAG”: the binding signal was 8540 fluorescence intensity (a.u.).
The figure for “GAGCAAAATTAAAATATTTTCTACAATTATATATACATAGCGGAGTCACCTAGTGCAG” is 3390 fluorescence intensity (a.u.).
The figure for “GATAACTGGTAAGCAAGCAAGCTCTTCACAATCATATGGCCGGAGTCACCTAGTGCAG” is 10800 fluorescence intensity (a.u.); for “ATGGATTTAGATTGGCGTGCGTCTCTTAACCGCACGAATGCGGAGTCACCTAGTGCAG” it is 20800 fluorescence intensity (a.u.).
The figure for “TTTCGTAATTATAATTAGGCAGTACAAGTACTTAACAAGACGGAGTCACCTAGTGCAG” is 35500 fluorescence intensity (a.u.); for “CCGTCTGTCATGAATGATAGAAATGTTATGAGTACGATGACGGAGTCACCTAGTGCAG” it is 3400 fluorescence intensity (a.u.); for “TGGTGATTTTACCCCTAACAGACTGGGACACTACTGTTTCCGGAGTCACCTAGTGCAG” it is 13700 fluorescence intensity (a.u.).
As to “GTATTTATTTCAATTAAAATCTTTATTTATAACAACATCTCGGAGTCACCTAGTGCAG”, the binding signal is 3470 fluorescence intensity (a.u.).
For “TTTGTTGATTTGTGTGTATGAATTATGATGGGCCCATGACCGGAGTCACCTAGTGCAG”, the binding signal is 29400 fluorescence intensity (a.u.).
The figure for “TTGATTGATGGGAGTCTAACAAAGTGACAAAACTTAGCAACGGAGTCACCTAGTGCAG” is 53900 fluorescence intensity (a.u.).
The figure for “ATCTTAATTTTATTGATAGAGAGAGATTTACGGATGTGTGCGGAGTCACCTAGTGCAG” is 52200 fluorescence intensity (a.u.); for “TTAATTAGACTTAACAAATTCGTCTCACAATTTAAGGGCGCGGAGTCACCTAGTGCAG” it is 26500 fluorescence intensity (a.u.).
Consider “AGTAAATGTCAATCATATCTACTTTCTCAGGTCTACAGAGCGGAGTCACCTAGTGCAG”, for which the binding signal is 38000 fluorescence intensity (a.u.).
The figure for “GGTAGTAAATGATTTTAAATGGAAAATTGTGAGCAACAGGCGGAGTCACCTAGTGCAG” is 19400 fluorescence intensity (a.u.); for “GTAGTAACTTGTAAATAGATGAGAATCTAATAAACAAGTTCGGAGTCACCTAGTGCAG” it is 4330 fluorescence intensity (a.u.); for “TTGACAATATTTGATAGGTTGTCCAATGGTATCGATTATTCGGAGTCACCTAGTGCAG” it is 9460 fluorescence intensity (a.u.).
As to “CTCTGTTCTAAAATAATTAGCGTTCTAGATTATTTAGGAACGGAGTCACCTAGTGCAG”, the binding signal is 7270 fluorescence intensity (a.u.).
Then “CTTAATTAATCACGTGTTAACCTATCGCTCCATTTTCCGACGGAGTCACCTAGTGCAG”, with 52200 fluorescence intensity (a.u.); and “ATAATTGCACTAGATTATACTGTAATTACATATGTCAAATCGGAGTCACCTAGTGCAG”, with 27300 fluorescence intensity (a.u.).
Then “ATGGAAACATGATTGCACAGAGCGTGTTTACTACTCTTATCGGAGTCACCTAGTGCAG”, with 16200 fluorescence intensity (a.u.).
As to “TTTAAGTCGTATAATTAACCTTTTGTAATTTTGAGTGAGACGGAGTCACCTAGTGCAG”, the binding signal is 3910 fluorescence intensity (a.u.).
For the sequence “ATATTTTATGATAAATTAATTATCCAAGGTTATAAATGATCGGAGTCACCTAGTGCAG”, the binding signal is 13300 fluorescence intensity (a.u.).
The figure for “AATTAATCCATGATTAGCCATAAGTGCTACAGTAACTTACCGGAGTCACCTAGTGCAG” is 12800 fluorescence intensity (a.u.).
On to “AATTTAATTAATTATGACTTCAGCTTGGTAGGTTCAGTTGCGGAGTCACCTAGTGCAG”, for which the binding signal is 53000 fluorescence intensity (a.u.).
Consider “CAAGCGACGGTAATTACGGTGGTATTTGTGATATTTCTATCGGAGTCACCTAGTGCAG”, for which the binding signal was 3480 fluorescence intensity (a.u.).
Then “GAAAATTGACATAAGGCTTTGTCTTTTGTATGCAACACTTCGGAGTCACCTAGTGCAG”, with 49500 fluorescence intensity (a.u.).
Then “AAATCTGTAATTTGTTTTATTATTAATATATGTTTAATACCGGAGTCACCTAGTGCAG”, with 7820 fluorescence intensity (a.u.); and “CTCCAATTTATTTATAGTCGATCTAACAGCTAATTCGTTTCGGAGTCACCTAGTGCAG”, with 7110 fluorescence intensity (a.u.).
With “CTAATAAACTGTCATGGCTTATAATCAGTTCAGAGCAACCCGGAGTCACCTAGTGCAG”, the binding signal was 9930 fluorescence intensity (a.u.).
Then “TGCAATCAACAATTAATGGGATGGCCGACCGGTGTGGTTGCGGAGTCACCTAGTGCAG”, with 21300 fluorescence intensity (a.u.); and “CGTGATGATTAGACAAGCTTAAAATTACCCTATTTGACGTCGGAGTCACCTAGTGCAG”, with 26500 fluorescence intensity (a.u.).
Then “TCTCTCCATTTACTTTTGATAACCATATTTTATTTTGACACGGAGTCACCTAGTGCAG”, with 3510 fluorescence intensity (a.u.).
Then “AATAAATACTCTAATTGCTAGCAACCAACGTCCCAACCCACGGAGTCACCTAGTGCAG”, with 9560 fluorescence intensity (a.u.).
As for “TCAATCAATCCAATCCATCCCACACACCGCCCATCTCCCTCGGAGTCACCTAGTGCAG”, the binding signal is 9950 fluorescence intensity (a.u.).
In the case of “TATGATAATTTGTTTAATAATAAATCTAATAACACCAATTCGGAGTCACCTAGTGCAG”, the binding signal is 21800 fluorescence intensity (a.u.).
The figure for “TTTATGTGTTAATTATGCACCATATTATTTGCGGTGAATACGGAGTCACCTAGTGCAG” is 11700 fluorescence intensity (a.u.); for “TAAATGTAATCACCGAATTAGCTGTCCATTAATAAACTTCCGGAGTCACCTAGTGCAG” it is 4500 fluorescence intensity (a.u.); for “CAGAAAACTGGAAAGTAATAATATAACTGGGGATGTTTCTCGGAGTCACCTAGTGCAG” it is 6200 fluorescence intensity (a.u.).
For the sequence “CCTTCCGTTTCCGTTCCGTTCCATTTCCCGTTCACACCCTCGGAGTCACCTAGTGCAG”, the binding signal was 4500 fluorescence intensity (a.u.).
Then “CAATAATAATGGTAAACAAATTTAGTCAAAGTTAAATAGTCGGAGTCACCTAGTGCAG”, with 7710 fluorescence intensity (a.u.); and “GCCCTCTCCAATCACTGCCATGCCGCGCGTGTGCCTTCCGCGGAGTCACCTAGTGCAG”, with 13200 fluorescence intensity (a.u.).
With “TTACACTAATATATTCCATCAACACGTTGTAACTACTCCCCGGAGTCACCTAGTGCAG”, the binding signal is 3160 fluorescence intensity (a.u.).
